Sequences and labels used below:
T1: RBFOX1 RRM RbFoxmut (Fox-RRM*) (Homo sapiens, UniProt Q9NWB1 109-208, R118D;E147R;N151S;E152T)
T1 sequence: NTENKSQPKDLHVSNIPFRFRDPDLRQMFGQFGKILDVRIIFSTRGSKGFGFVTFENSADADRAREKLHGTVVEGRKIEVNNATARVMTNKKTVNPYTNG

B1: AGCUAGU (DNA:RNA)
RNA: GGGAGACCGGAAUUCAGAUUGUCCAGCUAGUUUAAAUCCCGUCGUAGCCACCA
DNA 1: CAATCTGAATTCCGGTCTCCC
DNA 2: TGGTGGCTACGACGGGATT
B2: CUUUGUG (DNA:RNA)
RNA: B1 RNA with A25C, G26U, C27U, A29G, G30U, U31G
DNA 1: CAATCTGAATTCCGGTCTCCC
DNA 2: TGGTGGCTACGACGGGATT
B3: ACCGGGA (DNA:RNA)
RNA: B1 RNA with G26C, U28G, A29G, U31A
DNA 1: CAATCTGAATTCCGGTCTCCC
DNA 2: TGGTGGCTACGACGGGATT
B4: GCCUACG (DNA:RNA)
RNA: B1 RNA with A25G, G26C, G30C, U31G
DNA 1: CAATCTGAATTCCGGTCTCCC
DNA 2: TGGTGGCTACGACGGGATT
B5: UUUUGAC (DNA:RNA)
RNA: B1 RNA with A25U, G26U, C27U, A29G, G30A, U31C
DNA 1: CAATCTGAATTCCGGTCTCCC
DNA 2: TGGTGGCTACGACGGGATT
B6: CGCUGUU (DNA:RNA)
RNA: B1 RNA with A25C, A29G, G30U
DNA 1: CAATCTGAATTCCGGTCTCCC
DNA 2: TGGTGGCTACGACGGGATT
B7: GCAAAGC (DNA:RNA)
RNA: B1 RNA with A25G, G26C, C27A, U28A, U31C
DNA 1: CAATCTGAATTCCGGTCTCCC
DNA 2: TGGTGGCTACGACGGGATT
B8: AGGGAAU (DNA:RNA)
RNA: B1 RNA with C27G, U28G, G30A
DNA 1: CAATCTGAATTCCGGTCTCCC
DNA 2: TGGTGGCTACGACGGGATT
B9: GUCGCCG (DNA:RNA)
RNA: B1 RNA with A25G, G26U, U28G, A29C, G30C, U31G
DNA 1: CAATCTGAATTCCGGTCTCCC
DNA 2: TGGTGGCTACGACGGGATT
B10: CCUGGCA (DNA:RNA)
RNA: GGGAGACCGGAAUUCAGAUUGUCCCCUGGCAUUAAAUCCCGUCGUAGCCACCA
DNA 1: CAATCTGAATTCCGGTCTCCC
DNA 2: TGGTGGCTACGACGGGATT
B11: CCUCUUC (DNA:RNA)
RNA: B10 RNA with G28C, G29U, C30U, A31C
DNA 1: CAATCTGAATTCCGGTCTCCC
DNA 2: TGGTGGCTACGACGGGATT
B12: CUCCGCC (DNA:RNA)
RNA: B10 RNA with C26U, U27C, G28C, A31C
DNA 1: CAATCTGAATTCCGGTCTCCC
DNA 2: TGGTGGCTACGACGGGATT
B13: CCCCCAA (DNA:RNA)
RNA: B10 RNA with U27C, G28C, G29C, C30A
DNA 1: CAATCTGAATTCCGGTCTCCC
DNA 2: TGGTGGCTACGACGGGATT
B14: CAGCGUG (DNA:RNA)
RNA: B10 RNA with C26A, U27G, G28C, C30U, A31G
DNA 1: CAATCTGAATTCCGGTCTCCC
DNA 2: TGGTGGCTACGACGGGATT
B15: CGCUUUA (DNA:RNA)
RNA: B1 RNA with A25C, A29U, G30U, U31A
DNA 1: CAATCTGAATTCCGGTCTCCC
DNA 2: TGGTGGCTACGACGGGATT
B16: CCUUUCC (DNA:RNA)
RNA: B10 RNA with G28U, G29U, A31C
DNA 1: CAATCTGAATTCCGGTCTCCC
DNA 2: TGGTGGCTACGACGGGATT
B17: CAGUCAU (DNA:RNA)
RNA: B1 RNA with A25C, G26A, C27G, A29C, G30A
DNA 1: CAATCTGAATTCCGGTCTCCC
DNA 2: TGGTGGCTACGACGGGATT
B18: UAUUCAU (DNA:RNA)
RNA: B1 RNA with A25U, G26A, C27U, A29C, G30A
DNA 1: CAATCTGAATTCCGGTCTCCC
DNA 2: TGGTGGCTACGACGGGATT
B19: GCUGGGU (DNA:RNA)
RNA: B10 RNA with C25G, C30G, A31U
DNA 1: CAATCTGAATTCCGGTCTCCC
DNA 2: TGGTGGCTACGACGGGATT
B20: CAUGCAG (DNA:RNA)
RNA: B10 RNA with C26A, G29C, C30A, A31G
DNA 1: CAATCTGAATTCCGGTCTCCC
DNA 2: TGGTGGCTACGACGGGATT
B21: GUCCGUA (DNA:RNA)
RNA: B10 RNA with C25G, C26U, U27C, G28C, C30U
DNA 1: CAATCTGAATTCCGGTCTCCC
DNA 2: TGGTGGCTACGACGGGATT
B22: UAGAGCA (DNA:RNA)
RNA: B10 RNA with C25U, C26A, U27G, G28A
DNA 1: CAATCTGAATTCCGGTCTCCC
DNA 2: TGGTGGCTACGACGGGATT
B23: CAGCUUG (DNA:RNA)
RNA: B10 RNA with C26A, U27G, G28C, G29U, C30U, A31G
DNA 1: CAATCTGAATTCCGGTCTCCC
DNA 2: TGGTGGCTACGACGGGATT
B24: GAUUAGC (DNA:RNA)
RNA: B1 RNA with A25G, G26A, C27U, U31C
DNA 1: CAATCTGAATTCCGGTCTCCC
DNA 2: TGGTGGCTACGACGGGATT
B25: CCUAACG (DNA:RNA)
RNA: B10 RNA with G28A, G29A, A31G
DNA 1: CAATCTGAATTCCGGTCTCCC
DNA 2: TGGTGGCTACGACGGGATT
B26: UCGUAAU (DNA:RNA)
RNA: B1 RNA with A25U, G26C, C27G, G30A
DNA 1: CAATCTGAATTCCGGTCTCCC
DNA 2: TGGTGGCTACGACGGGATT
B27: GUGCUAC (DNA:RNA)
RNA: GGGAGACCGGAAUUCAGAUUGUCCGUGCUACUUAAAUCCCGUCGUAGCCACCA
DNA 1: CAATCTGAATTCCGGTCTCCC
DNA 2: TGGTGGCTACGACGGGATT
B28: GUGUUCA (DNA:RNA)
RNA: B27 RNA with C28U, A30C, C31A
DNA 1: CAATCTGAATTCCGGTCTCCC
DNA 2: TGGTGGCTACGACGGGATT
B29: CCUAACA (DNA:RNA)
RNA: B10 RNA with G28A, G29A
DNA 1: CAATCTGAATTCCGGTCTCCC
DNA 2: TGGTGGCTACGACGGGATT
B30: GAGAUGC (DNA:RNA)
RNA: B27 RNA with U26A, C28A, A30G
DNA 1: CAATCTGAATTCCGGTCTCCC
DNA 2: TGGTGGCTACGACGGGATT
B31: CGAGAUG (DNA:RNA)
RNA: B1 RNA with A25C, C27A, U28G, G30U, U31G
DNA 1: CAATCTGAATTCCGGTCTCCC
DNA 2: TGGTGGCTACGACGGGATT

Changes are numbered by the printed parent chain; changes in the protein carry UniProt numbers. Some of the results follow.

For this experiment, the target named is T1, RBFOX1 RRM RbFoxmut (Fox-RRM*). Description: EMSA; HiTS-Eq, 1 nM pool, 10 min; buffer printed only for the single-RNA assays: 10 mM Tris pH 7.5, 150 mM NaCl, 3.4 mM EDTA, 0.001% NP-40, 30 C. As to conditions: tags: His6 N-terminal (pET28a); label: 5' 32P. The procedure, abridged: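 Purified wild-type or mutant RbFox RRM at increasing concentrations was equilibrated with 1 nM of 5′-radiolabelled RNA carrying 7 randomized nucleotides for 10 min in 50 µL. Unbound RNA was separated by 8% native PAGE and sequenced. Relative association constants came from read-count changes of each RNA species compared with the control reaction, normalised to the cognate motif.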
On the technique in general: A gel shift assay detects complexes by their altered migration in electrophoresis.
Regarding B1, the binding signal was 0.145 KA relative to UGCAUGU.
On to B2, for which the binding signal is 0.131 KA relative to UGCAUGU.
In the case of B3, the binding signal is 0.0968 KA relative to UGCAUGU.
Under B4 stands 0.122 KA relative to UGCAUGU; under B5, 0.0723 KA relative to UGCAUGU.
Under B6 stands 0.0945 KA relative to UGCAUGU.
As for B7, the binding signal is 0.0455 KA relative to UGCAUGU.
As for B8, the figure is 0.112 KA relative to UGCAUGU; as for B9, 0.091 KA relative to UGCAUGU; as for B10, 0.148 KA relative to UGCAUGU.
Turning to B11, the binding signal is 0.0663 KA relative to UGCAUGU.
Take B12: the binding signal was 0.0956 KA relative to UGCAUGU.
Turning to B13, the binding signal was 0.0955 KA relative to UGCAUGU.
In the case of B14, the binding signal is 0.135 KA relative to UGCAUGU.
As to B15, the binding signal was 0.135 KA relative to UGCAUGU.
Regarding B16, the binding signal is 0.0512 KA relative to UGCAUGU.
B17: the binding signal is 0.0772 KA relative to UGCAUGU.
As for B18, the binding signal is 0.101 KA relative to UGCAUGU.
Take B19: the binding signal was 0.114 KA relative to UGCAUGU.
Turning to B20, the binding signal was 0.0953 KA relative to UGCAUGU.
For B21, the binding signal is 0.12 KA relative to UGCAUGU.
As for B22, the binding signal was 0.0838 KA relative to UGCAUGU.
Consider B23, for which the binding signal is 0.209 KA relative to UGCAUGU.
Under B24 stands 0.0959 KA relative to UGCAUGU; under B25, 0.0962 KA relative to UGCAUGU.
B26: the binding signal was 0.0961 KA relative to UGCAUGU.
Turning to B27, the binding signal was 0.105 KA relative to UGCAUGU.
Take B28: the binding signal is 0.14 KA relative to UGCAUGU.
As for B29, the figure is 0.107 KA relative to UGCAUGU; as for B30, 0.115 KA relative to UGCAUGU.
As for B31, the figure is 0.158 KA relative to UGCAUGU.

The values above are taken from PMC9911399, “Two distinct binding modes provide the RNA-binding protein RbFox with extraordinary sequence specificity”.
